{"source": "the supplement of paper PMC11417369", "note": "± gives the standard deviation of the averaged measurements. Some of the results follow."}
{"test_system": "PfAP2-I AP2 domain 3 (GST-tagged)", "experiment": "gcPBM binding intensity (ln(normalized median fluorescence intensity)); higher = stronger DNA binding", "procedure,_shortened": "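Probes on an Agilent 4 × 180k array were primer-extended, double-stranded and 36 bp long, taken from intergenic genomic regions, with negative controls added. GST-tagged P. falciparum DNA-binding domains from E. coli, about 25 μg on average, were applied to the array for 1 h in 1× PBS containing 1% milk, 0.2 mg/ml BSA, 0.5% salmon testes DNA and 0.03% Triton X-100. Binding intensity, obtained after Alexa488 anti-GST antibody detection and a 488 nm scan, is the highest Masliner-normalised natural-log median intensity across replicate spots of either probe orientation.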"}
{"sequence": "CAAACAATTAAACAAACACACATATACAAGTATATA [CACACA_site8639]", "gcPBM binding intensity (ln)": "7.34 ± 0.35"}
{"sequence": "TATTATTCCAAGAAAAAAAAAAATAAAAAAAAAAAA [CACACA_negctrl_site1424]", "gcPBM binding intensity (ln)": "8.03 ± 0.76"}
{"sequence": "ATTAAAATTTGTTAAAGTACTTAATAAAAATTTTTC [XGTACX_site1959]", "gcPBM binding intensity (ln)": "7.63 ± 0.36"}
{"sequence": "ACAACAATTCACTTGATGCACTAACCAAAAAAATAA", "gcPBM binding intensity (ln)": "10.1 ± 0.38"}
{"sequence": "CACGCACGCAGACACACACACACACGCACATATATA [CACACA_site6303]", "gcPBM binding intensity (ln)": "8.17 ± 0.4"}
{"sequence": "ACATATATTTTTTTTTGTACATATAAATATATATAT [XGTACX_site6491]", "gcPBM binding intensity (ln)": "8.7 ± 0.39"}
{"sequence": "ATTAAAATATAAGTCACACATATATATATATATATA [CACACA_site6145]", "gcPBM binding intensity (ln)": "9.16 ± 0.52"}
{"sequence": "TATTTTTTTTTATTTTTTTTTATTTTGTTTTTTTAT [TGCATGCA_negctrl_site315]", "gcPBM binding intensity (ln)": "7.32 ± 0.52"}
{"sequence": "ATATATTTTCCTTCAAGTACACATATAAATGTGTAT [XGTACX_site6633]", "gcPBM binding intensity (ln)": "7.97 ± 0.4"}
{"sequence": "AAAAAAATAATCATCACACACGGAGAATGTCCAATA [CACACA_site5305]", "gcPBM binding intensity (ln)": "7.55 ± 0.65"}
{"sequence": "AACGTAAAACATATCTATCAAAATAAATCATTAATC [TGCATGCA_negctrl_site68]", "gcPBM binding intensity (ln)": "7.46 ± 0.54"}
{"sequence": "AATATAATAATATTTTGTACATATCCTATGTATGAG [XGTACX_site8601]", "gcPBM binding intensity (ln)": "7.64 ± 0.35"}
{"sequence": "TTTTTTTTTACTGCATGTACTTGATGTAAATAAATT [XGTACX_site3045]", "gcPBM binding intensity (ln)": "8.15 ± 0.75"}
{"sequence": "AATGGAAATTTTTCTTGTACACATATATGACATGTT [XGTACX_site1691]", "gcPBM binding intensity (ln)": "7.71 ± 0.59"}
{"sequence": "AATATGACGTAGTGGTGTACACACATGGTACCTTTA [XGTACX_site3147]", "gcPBM binding intensity (ln)": "8.21 ± 0.45"}
{"sequence": "TTATAAATATAATTTTGTACATATATATATATATAC [XGTACX_site5064]", "gcPBM binding intensity (ln)": "7.77 ± 0.48"}
{"sequence": "TTAGAACTATTTTATACATGCAGTTATTTAATACTT [TGCATGCA_site1039]", "gcPBM binding intensity (ln)": "7.57 ± 0.71"}
{"sequence": "TATAGAATAATCTATAAACACACAAACACAACAAAA [CACACA_site9374]", "gcPBM binding intensity (ln)": "8.18 ± 0.28"}
{"sequence": "AAAAGATAATTATGCACACACACACCCCCACCCAAC [CACACA_site2570]", "gcPBM binding intensity (ln)": "10.71 ± 0.057"}
{"sequence": "TGTAGCCTGGAGAAGAGTACATAGTATCTGGTAGCT [XGTACX_site4943]", "gcPBM binding intensity (ln)": "7.85 ± 0.79"}
{"sequence": "CGTATGTGCGGACATGCATGCAATATACAAGAAAAA [TGCATGCA_site145]", "gcPBM binding intensity (ln)": "8.48 ± 0.82"}
{"sequence": "TTTTTTTTTTGAAGTGCATGTTACGATGAAAAAAAA [TGCATGCA_site64]", "gcPBM binding intensity (ln)": "9.025 ± 0.035"}
{"sequence": "GTATATTAATAAACATGTACACAATTTATTTATATT [XGTACX_site1012]", "gcPBM binding intensity (ln)": "7.93 ± 0.41"}
{"sequence": "TTTTTTTTTAAATGTTGTACATTATATTTGTGTATA [XGTACX_site8354]", "gcPBM binding intensity (ln)": "7.87 ± 0.54"}
{"sequence": "CTAAATAACTTAAGGTGTACGTTTCCAATAAAAAAA [XGTACX_site1742]", "gcPBM binding intensity (ln)": "7.78 ± 0.53"}
{"sequence": "ACATATAAAATGATGCGTACATATTTGATCATATAC [XGTACX_site153]", "gcPBM binding intensity (ln)": "7.95 ± 0.4"}
{"sequence": "TTTTAAAAAGATCATTAAAAAAAAAAAAAGAACAAA [CACACA_negctrl_site528]", "gcPBM binding intensity (ln)": "7.57 ± 0.62"}
{"sequence": "ATAATATAACAATACGCACACGTATACAAAAAAAAA [CACACA_site5703]", "gcPBM binding intensity (ln)": "8.4 ± 0.28"}
{"sequence": "AAATAATGGTTAGCTACACACAAAGCATTTTTTGAA [CACACA_site1016]", "gcPBM binding intensity (ln)": "7.34 ± 0.78"}
{"sequence": "TGTCTTGTAAATTATTGTACTATTTAAAGTATACAA [XGTACX_site7864]", "gcPBM binding intensity (ln)": "7.67 ± 0.6"}
{"sequence": "TTGTATATATTTATATGTACATATATTACTTTTGCT [XGTACX_site2449]", "gcPBM binding intensity (ln)": "7.54 ± 0.47"}
{"sequence": "AAAATACAAACAAGTGGTACTGTTTATAAATGGTTG [XGTACX_site1503]", "gcPBM binding intensity (ln)": "7.49 ± 0.55"}
{"sequence": "TATCCTAACTTTAGATGTACACAAATAAAAAAAAAA [XGTACX_site4491]", "gcPBM binding intensity (ln)": "8.12 ± 0.5"}
{"sequence": "CCATATAAAATATAAAAACACACGTATATATACATA [CACACA_site1511]", "gcPBM binding intensity (ln)": "7.54 ± 0.57"}
{"sequence": "ACAAAATGTAGAAAATGTACAAAATTAACAAAAGAA [XGTACX_site5019]", "gcPBM binding intensity (ln)": "8.03 ± 0.68"}
{"sequence": "ATTCAATCTTTTAATACACACAATTTATTTCAAAAC [CACACA_site835]", "gcPBM binding intensity (ln)": "7.98 ± 0.51"}
{"sequence": "TGTACATATATATAGATATATATAGATATATATATA [CACACA_negctrl_site1678]", "gcPBM binding intensity (ln)": "9.065 ± 0.035"}
{"sequence": "CACATATAAATATTAACACACATAATGAGTTATATA [CACACA_site7316]", "gcPBM binding intensity (ln)": "7.59 ± 0.22"}
{"sequence": "TTATTAAGTAAATCACATTTAATTTTTTTTTTTTTT [CACACA_negctrl_site1280]", "gcPBM binding intensity (ln)": "7.67 ± 0.28"}
{"sequence": "TTATACCATATTTATAGTACGTACAAATAAATCAAT [XGTACX_site4975]", "gcPBM binding intensity (ln)": "7.97 ± 0.35"}
{"sequence": "AAGAAAAAAAAAAAAAGTACATGCAATATGGATCTT [XGTACX_site3106]", "gcPBM binding intensity (ln)": "8.03 ± 0.86"}
{"sequence": "AAACAACATATATTAATATGTACATATATATAGATA [GTGCAC_negctrl_site229]", "gcPBM binding intensity (ln)": "7.7 ± 0.35"}
{"sequence": "TTTTTATTGTTATAGTTATAATATATTATTTGATTA [XGTACX_negctrl_site27]", "gcPBM binding intensity (ln)": "7.58 ± 0.43"}
{"sequence": "TTTTTTTTTTTTGTAACACACAATAATATAACATTA [CACACA_site3411]", "gcPBM binding intensity (ln)": "8.03 ± 0.83"}
{"sequence": "AATAATTGTTAAAGCTGTACAATACTTATATAAGAA [XGTACX_site5729]", "gcPBM binding intensity (ln)": "7.91 ± 0.44"}
{"sequence": "AATGTTTATTAACATTGTACTTATAATATGTCACAA [XGTACX_site2974]", "gcPBM binding intensity (ln)": "7.81 ± 0.099"}
{"sequence": "AATAATAAAGATCAATGTACATAATAAAAAAAAAAA [XGTACX_site2692]", "gcPBM binding intensity (ln)": "8.03 ± 0.63"}
{"sequence": "TATCATGGGTGTATTTCACACACGGATAATCATTTA [CACACA_site8211]", "gcPBM binding intensity (ln)": "7.46 ± 0.61"}
{"sequence": "TAATAATTTATAATAGTGCATTTGATTTTAAAAATA", "gcPBM binding intensity (ln)": "9.81 ± 0.51"}
{"sequence": "TTTTTATGGTAAATAAAAATATCTCCCTCCTTAATT [CACACA_negctrl_site1352]", "gcPBM binding intensity (ln)": "7.42 ± 0.55"}
{"sequence": "TTAAAAAAATATAATACACACCAAAAATATGCACAT [CACACA_site5209]", "gcPBM binding intensity (ln)": "9.6 ± 0.43"}
{"sequence": "ATTTACATAAATTGCATATATCGATGTAAATAAATA [CACACA_negctrl_site1150]", "gcPBM binding intensity (ln)": "7.7 ± 0.57"}
{"sequence": "TCTTTTTAAACTAATAGTACATATATATTAATAAAT [XGTACX_site4217]", "gcPBM binding intensity (ln)": "7.93 ± 0.16"}
{"sequence": "CATTTATTTTTGTTCTGTACATAAAGATGAACAAAA [XGTACX_site6797]", "gcPBM binding intensity (ln)": "7.75 ± 0.26"}
{"sequence": "ATATATATATATATATGTACATATATTTATTTATTG [XGTACX_site6267]", "gcPBM binding intensity (ln)": "9.21 ± 0.89"}
{"sequence": "ATAAAATGATAAATTTGTACACAAAAAAAAAAAAAA [XGTACX_site964]", "gcPBM binding intensity (ln)": "8.04 ± 0.54"}
